Reference: paper PMC6919601, “Identification of Plasmodium dipeptidyl aminopeptidase allosteric inhibitors by high throughput screening” (PLoS ONE, 2019)
The whole screen tested about 110,000 compounds, of which about 230 (0.21%) showed an effect of 50% or more. The list shows a part of the results.

Target: DPAP1 (Plasmodium falciparum, UniProt Q8IIJ9)
Assay: primary screen, percent inhibition; read by cleavage of a fluorogenic dipeptide substrate; higher = more effect of the substance
Set-up: species or system P. falciparum D10 trophozoite lysates; single well
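Also: 30 min substrate incubation versus DMSO and 10 µM JCP410 controls.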

DPAP1, sequence (Q8IIJ9 whole entry, looked up): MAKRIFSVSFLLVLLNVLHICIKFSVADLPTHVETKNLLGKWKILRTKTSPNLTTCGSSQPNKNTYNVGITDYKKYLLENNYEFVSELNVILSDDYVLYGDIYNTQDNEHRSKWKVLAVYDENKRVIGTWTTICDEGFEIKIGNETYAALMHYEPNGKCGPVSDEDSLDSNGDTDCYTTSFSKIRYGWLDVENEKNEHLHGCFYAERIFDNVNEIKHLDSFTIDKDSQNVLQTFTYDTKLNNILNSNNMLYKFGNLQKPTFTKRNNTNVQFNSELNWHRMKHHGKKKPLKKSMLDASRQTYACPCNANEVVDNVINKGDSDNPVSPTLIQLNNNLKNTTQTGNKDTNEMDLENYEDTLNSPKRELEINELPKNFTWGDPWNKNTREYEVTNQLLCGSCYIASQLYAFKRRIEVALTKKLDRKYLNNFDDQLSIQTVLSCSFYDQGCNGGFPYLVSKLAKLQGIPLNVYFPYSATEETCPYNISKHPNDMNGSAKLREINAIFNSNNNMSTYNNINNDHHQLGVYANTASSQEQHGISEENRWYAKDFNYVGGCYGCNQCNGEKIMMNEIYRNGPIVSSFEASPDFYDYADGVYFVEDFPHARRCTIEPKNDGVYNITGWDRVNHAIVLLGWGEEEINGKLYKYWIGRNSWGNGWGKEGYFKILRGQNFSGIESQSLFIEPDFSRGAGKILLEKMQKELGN

| Compound | % Inhibition @ 10 uM |
| --- | --- |
| CN(CCCNS(=O)(=O)c1csc(C(N)=O)c1)Cc1ccccc1 | -6.19% |
| CC(C)CC(NC(=O)c1ccc(NC(=O)N2CCN(CCN3CCOCC3)CC2)cc1)C(=O)NCC#N (centres unmarked) | 5.05% |
| COc1ccc(C2Nn3c(nnc3-c3ccccc3)SC2C(=O)NCc2ccco2)cc1Cl (centres unmarked) | -3.76% |
| COc1ccc(/C=C/C(=O)c2c(O)ccc3c(C)cc(=O)oc23)cc1 | 0.238% |
| Cn1c(C(=O)N2CCCC(C(=O)N3CCN(Cc4ccc5c(c4)OCO5)CC3)C2)cc2sccc21 (centres unmarked) | -2.01% |
| CCCCN(Cc1ccccc1)Cc1ccc(-c2cccc(Cl)c2)o1 | -3.5% |
| CCOc1ccccc1C1C(C#N)=C(N)Oc2cc(C)oc(=O)c21 (centres unmarked) | -3.13% |
| CC(C)NC(=O)CSc1cn(CC(=O)N2CCOCC2)c2ccccc12 | -2.84% |
| CCc1ccc(/C(O)=C/C=N/c2ccc(OC)cc2OC)cc1 | 2.46% |
| Cc1ccc(NC(=O)CN2C(=O)S/C(=C\c3cccn3C)C2=O)c(C)c1 | -10.8% |
| CN(C)S(=O)(=O)c1cc(C(=O)NCCOC23CC4CC(CC(C4)C2)C3)c(Cl)cc1Cl | 2.7% |
| CCOc1ccc(CCn2c3c(c(=O)[nH]c2=O)C(NC(C)=O)(C(F)(F)F)C(=O)N3)cc1OCC (centres unmarked) | -1.57% |
| CN(C)CCNC(=O)CN1C(=O)c2ccccc2Sc2ncccc21 | -3.86% |
| Cc1cc(NC(=O)CCCC(=O)O)no1 | 0.64% |
| O=C(CSCC(=O)c1ccccc1)Nc1ccc2ccccc2c1 | -4.4% |
| Cc1c(C(=O)NCCO)oc2cc3c(C)c(C(=O)NCCO)oc3cc12 | 2.99% |
| Cc1nn(C)cc1CN(C)C(=O)c1cc2n(n1)C(C(F)(F)F)CC(c1ccc3c(c1)OCO3)N2 (centres unmarked) | 10% |
| CCCC(C)NC(=O)c1ccc(N(C)C)cc1 (centres unmarked) | -6.62% |
| COc1ccc(/C=C/C(=O)Nc2ccc(N3CCOCC3)cc2)cc1 | 3% |
| CN(Cc1nc2ccccc2n1C)C(=O)c1ccc(Cl)cc1 | -0.671% |
| COc1ccc(OC)c(CN2CCN(Cc3ccc(OC)c(Br)c3)CC2)c1 | -0.622% |
| COc1ccc2c(c1)c1c(c(=O)n(Cc3ccccc3)c(=O)n1CC(N)=O)n2C | 6.16% |
| COC(=O)c1cnn2c(O)c(Cl)c(C)nc12 | -5.8% |
| COC(=O)c1nnn(-c2ccc(C)cc2)c1C(=O)OC | -1.58% |
| CCCNC(=O)c1ccc(CSc2nc3ccncc3n2Cc2ccc(F)cc2)cc1 | -2.37% |
| CO/C(O)=C1\C(C)=Nc2c(c(=O)n(C)c(=O)n2C)C1c1cccc(OCc2ccccc2)c1 (centres unmarked) | 0.147% |
